# The source gives many values for each of these; only a part stands here.
# Test system: PRISM panel of 845 cancer cell lines
# Assay: PRISM assay
# Assay type: cell-based, human
# Method: The PRISM cell set comprised 845 cell lines representing more than 45 lineages (see Supplementary Table S1 for cell line information), which largely overlapped with the Cancer Cell Line Encyclopedia; https://portals.broadinstitute.org/ccle). Cell lines were grown in RPMI without phenol red and supplemented with 10% or 20% FBS for adherent and suspended lines, respectively. Parental cell lines were stably infected with a unique 24-nucleotide DNA barcode via lentiviral transduction and blasticidin selection. After selection, barcoded cell lines were expanded and subjected to quality control (Mycoplasma contamination test, an SNP test for confirming cell line identity, and barcode ID confirmation). Approved cell lines were then pooled (20–25 cell lines per pool) based on doubling time similarity and frozen in assay-ready vials.
# RMC-6236 was added to 384-well plates at 8-point concentration with 3-fold dilutions in triplicate. These assay-ready plates were then seeded with the thawed cell line pools. Adherent cell pools were plated at 1,250 cells per well, whereas suspension and mixed adherent/suspension pools were plated at 2,000 cells per well. Treated cells were incubated for 5 days, and then lysed. Lysate plates were collapsed together prior to barcode amplification and detection.
# Each cell line's unique barcode is located in the 3′UTR of the blasticidin-resistance gene and therefore is expressed as mRNA. Total mRNA was captured using magnetic particles that recognize polyA sequences. Captured mRNA was reverse-transcribed into cDNA and then the sequence containing the unique PRISM barcode was amplified using PCR. Finally, Luminex beads that recognize the specific barcode sequences in the cell set were hybridized to the PCR products and detected using a Luminex scanner which reports the signal as a median fluorescent intensity (MFI).
# • Each detection well contained 10 control barcodes in increasing abundances as spike-in controls. For each plate, we first create a reference profile by calculating the median of the log2(MFI) values across negative control wells for each of these spiked-in barcodes. • For each well, a monotonic smooth p-spline was fitted to map the spike-in control levels to the reference profile. Next, we transform the log2(MFI) for each cell barcode using the fitted spline to allow well-to-well comparisons by correcting for amplification and detection artifacts. • Next, the separability between negative and positive control treatments was assessed. In particular, we calculated the error rate of the optimum simple threshold classifier between the control samples for each cell line and plate combination. The error rate is a measure of the overlap of the two control sets and was defined as error = (FP + FN)/n, where FP is false positives, FN is false negatives, and n is the total number of controls. A threshold was set between the distributions of positive and negative control log2(MFI) values (with everything below the threshold said to be positive and above said to be negative) such that this value is minimized. Additionally, we also calculated the dynamic range of each cell line. […] Additionally, any cell line that had less than 2 passing replicates was also omitted for the sake of reproducibility. Finally, we computed viability by normalizing with respect to the median negative control for each plate.
# For every gene with nonsilent mutations in at least four cell lines, we compared the AUC values between cells with and without those mutations using a t test. This analysis was carried out for (i) the full data set; (ii) excluding cell lines with nonsilent KRAS mutations; and (iii) excluding cell lines that have either KRAS or NRAS nonsilent mutations.
smiles,measurement,setting,value
CCn1c(-c2cc(N3CCN(C)CC3)cnc2[C@H](C)OC)c2c3cc(ccc31)-c1csc(n1)C[C@H](NC(=O)[C@H]1C[C@@H]1C)C(=O)N1CCC[C@H](N1)C(=O)OCC(C)(C)C2 [RMC-6236],RMC-6236: RevMed PRISM: AUC,SCC3_HAEMATOPOIETIC_AND_LYMPHOID_TISSUE,0.4975
same,RMC-6236: RevMed PRISM: AUC,SCC25_UPPER_AERODIGESTIVE_TRACT,0.6103
same,RMC-6236: RevMed PRISM: AUC,SCLC21H_LUNG,0.8658
same,RMC-6236: RevMed PRISM: AUC,SF126_CENTRAL_NERVOUS_SYSTEM,0.812
same,RMC-6236: RevMed PRISM: AUC,SF539_CENTRAL_NERVOUS_SYSTEM,0.7786
same,RMC-6236: RevMed PRISM: AUC,"SG231_BILIARY_TRACT, KRAS p.G12F",0.4532
same,RMC-6236: RevMed PRISM: AUC,"SH10TC_STOMACH, KRAS p.G12V",0.644
same,RMC-6236: RevMed PRISM: AUC,SHMAC5_PROSTATE,0.5238
same,RMC-6236: RevMed PRISM: AUC,"SHP77_LUNG, KRAS p.G12V",0.7702
same,RMC-6236: RevMed PRISM: AUC,SKGII_ENDOMETRIUM,0.807
same,RMC-6236: RevMed PRISM: AUC,SKGI_ENDOMETRIUM,0.6802
same,RMC-6236: RevMed PRISM: AUC,"SKGT4_OESOPHAGUS, KRAS p.G12A",0.383
same,RMC-6236: RevMed PRISM: AUC,"SKM1_HAEMATOPOIETIC_AND_LYMPHOID_TISSUE, KRAS p.K117N",0.2685
same,RMC-6236: RevMed PRISM: AUC,SKMEL5_SKIN,0.8508
same,RMC-6236: RevMed PRISM: AUC,SKMEL28_SKIN,1
same,RMC-6236: RevMed PRISM: AUC,"SKMEL30_SKIN, NRAS p.Q61K",0.4948
same,RMC-6236: RevMed PRISM: AUC,SKMES1_LUNG,0.7404
same,RMC-6236: RevMed PRISM: AUC,"SKNAS_AUTONOMIC_GANGLIA, NRAS p.Q61K",0.3702
same,RMC-6236: RevMed PRISM: AUC,SKNBE2_AUTONOMIC_GANGLIA,0.6065
same,RMC-6236: RevMed PRISM: AUC,SKNDZ_AUTONOMIC_GANGLIA,0.892
same,RMC-6236: RevMed PRISM: AUC,SKNEP1_BONE,0.827
same,RMC-6236: RevMed PRISM: AUC,SKNFI_AUTONOMIC_GANGLIA,0.7227
same,RMC-6236: RevMed PRISM: AUC,SKNO1_HAEMATOPOIETIC_AND_LYMPHOID_TISSUE,0.5954
same,RMC-6236: RevMed PRISM: AUC,SKN_ENDOMETRIUM,0.7409
same,RMC-6236: RevMed PRISM: AUC,SKOV3_OVARY,0.8252
same,RMC-6236: RevMed PRISM: AUC,SKPNDW_BONE,0.7684
same,RMC-6236: RevMed PRISM: AUC,"SKUT1_SOFT_TISSUE, HRAS p.R73C",0.8832
same,RMC-6236: RevMed PRISM: AUC,"SNGM_ENDOMETRIUM, KRAS p.G12V",0.5921
same,RMC-6236: RevMed PRISM: AUC,SNU46_UPPER_AERODIGESTIVE_TRACT,0.7626
same,RMC-6236: RevMed PRISM: AUC,"SNU61_LARGE_INTESTINE, KRAS p.G12D",0.3181
same,RMC-6236: RevMed PRISM: AUC,SNU119_OVARY,0.759
same,RMC-6236: RevMed PRISM: AUC,SNU182_LIVER,0.9962
same,RMC-6236: RevMed PRISM: AUC,"SNU213_PANCREAS, KRAS p.G12V",0.4211
same,RMC-6236: RevMed PRISM: AUC,SNU216_STOMACH,0.7562
same,RMC-6236: RevMed PRISM: AUC,SNU245_BILIARY_TRACT,0.845
same,RMC-6236: RevMed PRISM: AUC,SNU398_LIVER,1
same,RMC-6236: RevMed PRISM: AUC,"SNU410_PANCREAS, KRAS p.G12D",0.7477
same,RMC-6236: RevMed PRISM: AUC,SNU423_LIVER,0.8129
same,RMC-6236: RevMed PRISM: AUC,SNU489_CENTRAL_NERVOUS_SYSTEM,0.962
same,RMC-6236: RevMed PRISM: AUC,"SNU668_STOMACH, KRAS p.Q61K",0.435
same,RMC-6236: RevMed PRISM: AUC,SNU685_ENDOMETRIUM,0.9177
same,RMC-6236: RevMed PRISM: AUC,"SNU869_BILIARY_TRACT, KRAS p.G12D",0.5979
same,RMC-6236: RevMed PRISM: AUC,SNU878_LIVER,0.869
same,RMC-6236: RevMed PRISM: AUC,"SNU899_UPPER_AERODIGESTIVE_TRACT, HRAS p.G13R",0.3744
same,RMC-6236: RevMed PRISM: AUC,SNU1066_UPPER_AERODIGESTIVE_TRACT,0.5644
same,RMC-6236: RevMed PRISM: AUC,SNU1077_ENDOMETRIUM,1
same,RMC-6236: RevMed PRISM: AUC,SNU1105_CENTRAL_NERVOUS_SYSTEM,0.6864
same,RMC-6236: RevMed PRISM: AUC,SNU1196_BILIARY_TRACT,0.9106
same,RMC-6236: RevMed PRISM: AUC,SNU1214_UPPER_AERODIGESTIVE_TRACT,0.4564
same,RMC-6236: RevMed PRISM: AUC,SNU1544_LARGE_INTESTINE,0.667
same,RMC-6236: RevMed PRISM: AUC,"SNUC2A_LARGE_INTESTINE, KRAS p.G12D",0.8752
same,RMC-6236: RevMed PRISM: AUC,SSP25_BILIARY_TRACT,0.9443
same,RMC-6236: RevMed PRISM: AUC,SUDHL1_HAEMATOPOIETIC_AND_LYMPHOID_TISSUE,0.5026
same,RMC-6236: RevMed PRISM: AUC,SUM149PT_BREAST,0.5255
same,RMC-6236: RevMed PRISM: AUC,SUPT11_HAEMATOPOIETIC_AND_LYMPHOID_TISSUE,1
same,RMC-6236: RevMed PRISM: AUC,SUSA_TESTIS,0.6211
same,RMC-6236: RevMed PRISM: AUC,SW156_KIDNEY,0.9098
same,RMC-6236: RevMed PRISM: AUC,"SW480_LARGE_INTESTINE, KRAS p.G12V",0.4385
same,RMC-6236: RevMed PRISM: AUC,"SW620_LARGE_INTESTINE, KRAS p.G12V",0.2672
same,RMC-6236: RevMed PRISM: AUC,"SW756_CERVIX, KRAS p.G12C",0.4293
same,RMC-6236: RevMed PRISM: AUC,SW780_URINARY_TRACT,0.5849
same,RMC-6236: RevMed PRISM: AUC,"SW837_LARGE_INTESTINE, KRAS p.G12C",0.595
same,RMC-6236: RevMed PRISM: AUC,"SW900_LUNG, KRAS p.G12V",0.5248
same,RMC-6236: RevMed PRISM: AUC,"SW948_LARGE_INTESTINE, KRAS p.Q61L",0.4797
same,RMC-6236: RevMed PRISM: AUC,SW954_CERVIX,0.6119
same,RMC-6236: RevMed PRISM: AUC,SW1088_CENTRAL_NERVOUS_SYSTEM,0.7425
same,RMC-6236: RevMed PRISM: AUC,"SW1116_LARGE_INTESTINE, KRAS p.G12A",0.7333
same,RMC-6236: RevMed PRISM: AUC,"SW1463_LARGE_INTESTINE, KRAS p.G12C",0.2992
same,RMC-6236: RevMed PRISM: AUC,"SW1573_LUNG, KRAS p.G12C",0.6165
same,RMC-6236: RevMed PRISM: AUC,SW1783_CENTRAL_NERVOUS_SYSTEM,0.8089
same,RMC-6236: RevMed PRISM: AUC,"SW1990_PANCREAS, KRAS p.G12D",0.8199
same,RMC-6236: RevMed PRISM: AUC,T3M5_THYROID,0.8927
same,RMC-6236: RevMed PRISM: AUC,"T3M10_LUNG, KRAS p.G12D",0.8488
same,RMC-6236: RevMed PRISM: AUC,"T24_URINARY_TRACT, HRAS p.G12V",0.6445
same,RMC-6236: RevMed PRISM: AUC,T47D_BREAST,0.8912
same,RMC-6236: RevMed PRISM: AUC,"T84_LARGE_INTESTINE, KRAS p.G13D",0.6008
same,RMC-6236: RevMed PRISM: AUC,T98G_CENTRAL_NERVOUS_SYSTEM,0.7881
same,RMC-6236: RevMed PRISM: AUC,"TALL1_HAEMATOPOIETIC_AND_LYMPHOID_TISSUE, NRAS p.G12D",0.4239
same,RMC-6236: RevMed PRISM: AUC,TASK1_CENTRAL_NERVOUS_SYSTEM,0.8516
same,RMC-6236: RevMed PRISM: AUC,TC71_BONE,0.8332
same,RMC-6236: RevMed PRISM: AUC,"TCCPAN2_PANCREAS, KRAS p.G12R",0.5434
same,RMC-6236: RevMed PRISM: AUC,TE1_OESOPHAGUS,0.8076
same,RMC-6236: RevMed PRISM: AUC,TE5_OESOPHAGUS,0.5868
same,RMC-6236: RevMed PRISM: AUC,TE6_OESOPHAGUS,0.5591
same,RMC-6236: RevMed PRISM: AUC,TE10_OESOPHAGUS,0.6666
same,RMC-6236: RevMed PRISM: AUC,TE11_OESOPHAGUS,0.7785
same,RMC-6236: RevMed PRISM: AUC,TE14_OESOPHAGUS,0.6036
same,RMC-6236: RevMed PRISM: AUC,TE15_OESOPHAGUS,0.3712
same,RMC-6236: RevMed PRISM: AUC,"TEN_ENDOMETRIUM, KRAS p.T74P",0.8739
same,RMC-6236: RevMed PRISM: AUC,"TF1_HAEMATOPOIETIC_AND_LYMPHOID_TISSUE, NRAS p.Q61P",0.3969
same,RMC-6236: RevMed PRISM: AUC,TGBC1TKB_BILIARY_TRACT,0.946
same,RMC-6236: RevMed PRISM: AUC,TGBC18TKB_LARGE_INTESTINE,0.7019
same,RMC-6236: RevMed PRISM: AUC,"TGBC52TKB_BILIARY_TRACT, KRAS p.G12D",0.5472
